Data taken from paper PMC9163754.
Changes are numbered by the printed parent chain. Results are given in words; binding and its absence hold for the method and conditions named. In cells and extracts the contact can be indirect. Some entries that bind do so weakly or less than the wild type. For part of these data: Sequences can lack the tags named with a protein.

Amino acid sequences for entries named in this document (tags omitted).
UniProt Q00534: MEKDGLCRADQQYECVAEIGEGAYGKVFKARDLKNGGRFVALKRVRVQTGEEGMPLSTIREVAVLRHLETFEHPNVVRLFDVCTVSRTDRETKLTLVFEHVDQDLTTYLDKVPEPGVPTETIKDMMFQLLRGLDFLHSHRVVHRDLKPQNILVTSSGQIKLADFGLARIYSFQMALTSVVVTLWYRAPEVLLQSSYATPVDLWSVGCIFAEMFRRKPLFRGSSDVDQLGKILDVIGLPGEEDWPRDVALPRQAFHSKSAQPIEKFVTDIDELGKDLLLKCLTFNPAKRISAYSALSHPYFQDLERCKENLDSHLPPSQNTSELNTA
UniProt Q64261: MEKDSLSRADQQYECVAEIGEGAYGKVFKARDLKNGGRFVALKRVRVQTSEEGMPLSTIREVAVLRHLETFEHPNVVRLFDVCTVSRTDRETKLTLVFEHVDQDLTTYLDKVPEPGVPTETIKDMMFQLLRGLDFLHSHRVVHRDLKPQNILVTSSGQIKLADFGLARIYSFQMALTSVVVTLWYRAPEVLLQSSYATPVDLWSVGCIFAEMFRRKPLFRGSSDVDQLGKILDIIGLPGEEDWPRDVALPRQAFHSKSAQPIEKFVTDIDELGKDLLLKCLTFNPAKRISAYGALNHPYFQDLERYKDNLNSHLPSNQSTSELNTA

How the values were obtained:
[1] = molecular target: GFP-FAK (full-length FAK) (UniProt P34152); test: co-IP; GFP-IP from HeLa cells transfected with GFP fusion constructs of FAK, treated with FAK-I and MG-132 for 6 h before immunoprecipitation; immunoblot for endogenous CDK4 and CDK6
GFP-FERM-R312A/K313A = molecular target: T1, GFP-FERM-R312A/K313A (UniProt P34152); test: co-IP; GFP-IP from B16F10 cells transfected for 24 h with GFP-FERM-WT, GFP-FERM-NLM or GFP-FERM-R312A/K313A; immunoblot for endogenous CDH1, CDK4 and CDK6
T1 sequence: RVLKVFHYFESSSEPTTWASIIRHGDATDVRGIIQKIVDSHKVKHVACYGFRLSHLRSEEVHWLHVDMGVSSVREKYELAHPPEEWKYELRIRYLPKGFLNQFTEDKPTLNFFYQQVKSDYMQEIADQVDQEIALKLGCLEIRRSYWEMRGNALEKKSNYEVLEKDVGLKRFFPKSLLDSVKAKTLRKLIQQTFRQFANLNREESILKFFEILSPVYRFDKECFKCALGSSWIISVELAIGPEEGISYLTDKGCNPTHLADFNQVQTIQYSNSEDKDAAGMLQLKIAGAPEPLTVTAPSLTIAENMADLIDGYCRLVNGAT

GFP-FERM-WT = molecular target: T2, GFP-FERM-WT (UniProt P34152); test: as above
T2 sequence: T1 sequence with A278R, A279K

[2] = molecular target: Focal adhesion kinase (FAK) (mouse (endogenous in B16F10)) (UniProt P34152); test: condition: only vehicle-treated cells, without FAK inhibitor; co-IP; FAK-IP from lysates of vehicle-treated B16F10 cells (no FAK inhibitor), endogenous proteins; immunoblot
[3] = molecular target: Focal adhesion kinase (FAK) (mouse (endogenous in B16F10)) (UniProt P34152); test: co-IP; FAK-IP from B16F10 lysates, endogenous proteins; cells treated with FAK-I (PF-271, 2.5 uM) with or without MG-132 (10 uM) for 6 h; 1% Triton X-100, 50 mM Hepes, 150 mM NaCl buffer, overnight at 4 °C; immunoblot
[4] = molecular target: CDC homolog 1 (CDH1) (mouse (endogenous in B16F10)) (UniProt Q9R1K5); test: co-IP; CDH1-IP from B16F10 lysates, endogenous proteins; cells treated with FAK-I with or without MG-132 for 6 h; immunoblot

| binding [1] | binding (GFP-FERM-R312A/K313A) | binding (GFP-FERM-WT) | binding [2] | binding [3] | binding [4] | Substance |
| --- | --- | --- | --- | --- | --- | --- |
| binds |  |  |  |  |  | cyclin-dependent kinase 6 (CDK6) (from UniProt Q00534 1-326) |
|  | binds | binds | no binding | binds |  | cyclin-dependent kinase 6 (CDK6) (from UniProt Q64261 1-326) |
|  | binds weakly | binds |  | binds |  | CDC homolog 1 (CDH1) (from UniProt Q9R1K5 1-493) |
|  |  |  |  |  | binds | Focal adhesion kinase (FAK) (from UniProt P34152 1-1052) |
